Some of the results follow. The exact form of the protein is not confirmed.

The target of the test is GST-SBP-ILF3 (Homo sapiens) (UniProt Q12906). In words: targeted RNA Bind-n-Seq. The conditions noted are these: RBNS binding buffer: 25 mM Tris pH 7.5, 150 mM KCl, 3 mM MgCl2, 0.1% Tween, 0.5 mg/mL BSA, 1 mM DTT; 27 nM protein, 750 pM RNA pool; temperature not stated; high values mean tight binding; sequences stand for … in GGGUAAAAGCGAGGUGAA…CGGGACAAGUAUUAUGGG
“UUUUUUUUUUGAGACUGAGCCAGUCUCCGG [tttttgagapaired]”: the binding signal (log2 fold change) is 0.321.
In the case of “UUUUUUUUUUGAGAGCGUGGCGUUCUCCAG [tttttgagapaired]”, the binding signal (log2 fold change) was 0.487.
“UUUUUUUUUUGAGAUGGUUUCCAUUUCCAG [tttttgagapaired]”: the binding signal (log2 fold change) is 0.19.
Consider “UUUUUUUUUUGAGAGGGCGACCCUCUCCAG [tttttgagapaired]”, for which the binding signal (log2 fold change) was 0.531.
“UUUUUUUUUUGAGACCGUCACGGUCUUCUG [tttttgagapaired]”: the binding signal (log2 fold change) is 0.477.
For the sequence “UUUUUUUUUUGAGACGGAGGCCGUCUCCUA [tttttgagapaired]”, the binding signal (log2 fold change) was found to be 0.569.
In the case of “UUUUUUUUUUGAGAUCGAGGCGAUCUCCUA [tttttgagapaired]”, the binding signal (log2 fold change) came out at 0.192.
As to “UUUUUUUUUUGAGACUGUGUCAGUCUUCUG [tttttgagapaired]”, the binding signal (log2 fold change) came out at 0.662.
For the sequence “GUGUGGUGUGUUGGCUCCUAACACAUCGCG [gtspaired]”, the binding signal (log2 fold change) was -0.62.
For the sequence “UUUUUUUUUUGAGACCGUAUCGGUCUUCUG [tttttgagapaired]”, the binding signal (log2 fold change) is 0.346.
The value for “GUGUUGUGUGUUGGCCUCUAACACACAGCG [gtspaired]” was -0.416.
Turning to “UUUUUUUUUUGAGACUGUUGCAGUCUCCUA [tttttgagapaired]”, the binding signal (log2 fold change) worked out at 0.442.
On to “GUUGUGUGUGUUGGUCUCUAACACACGCAG [gtspaired]”, for which the binding signal (log2 fold change) is -0.912.
Consider “UUUUUUUUUUGAGAGGGUUGCCCUCUCCAG [tttttgagapaired]”, for which the binding signal (log2 fold change) is 0.562.
For “GGUGUGUGUGUUGGAGUCUAACACAUACAC [gtspaired]” the value was -0.277; for “GUGUGUUGUGUUGGACCCUAACACAGCACG [gtspaired]”, -0.277.
Consider “GUUGGUGGUGUUGGAACCUAACACCGCCAG [gtspaired]”, for which the binding signal (log2 fold change) is -0.646.
For “UUUUUUUUUUGAGAUGGAAGCCAUCUCCUA [tttttgagapaired]” the value was -0.13; for “UUUUUUUUUUGAGAGCGGAUCGUUCUUCUA [tttttgagapaired]”, 0.0883.
Turning to “UUUUUUUUUUGAGAGCGUAGCGUUCUCCUA [tttttgagapaired]”, the binding signal (log2 fold change) stood at 0.357.
Take “GUGUGUGGUGUUGGAACCUAACACCAUACA [gtspaired]”: the binding signal (log2 fold change) was 0.0792.
In the case of “GUGUGUUGUGUUGGUGUCUAACACAGCACG [gtspaired]”, the binding signal (log2 fold change) is -0.795.
As to “UUUUUUUUUUGAGACCGAACCGGUUUCCUA [tttttgagapaired]”, the binding signal (log2 fold change) stood at 0.094.
Regarding “UUUUUUUUUUGAGACCGGGUCGGUCUCCGG [tttttgagapaired]”, the binding signal (log2 fold change) stood at 0.462.
The value for “UUUUUUUUUUGAGACCGGUCCGGUCUCCUA [tttttgagapaired]” was 1.12; that for “UUUUUUUUUUGAGACGGGCACCGUCUUCUA [tttttgagapaired]” was 0.052.
For the sequence “GGUGUGUGUGUUGGAACCUAACACAUAUAC [gtspaired]”, the binding signal (log2 fold change) was -0.791.
Consider “GUGUGUGGUGUUGGCCCCUAACACCGCAUA [gtspaired]”, for which the binding signal (log2 fold change) turned out to be 0.0552.
Turning to “UUUUUUUUUUGAGACUGAAUCAGUCUCCAG [tttttgagapaired]”, the binding signal (log2 fold change) was 0.204.
With “UUUUUUUUUUGAGAGGGAGACCCUUUCCAG [tttttgagapaired]”, the binding signal (log2 fold change) was found to be 0.401.
Regarding “UUUUUUUUUUGAGAUGGUUGCCAUCUCCAG [tttttgagapaired]”, the binding signal (log2 fold change) came to 0.313.
For the sequence “UUUUUUUUUUGAGACGGAAACUGUCUCCUA [tttttgagapaired]”, the binding signal (log2 fold change) is 0.636.
In the case of “UUUUUUUUUUGAGACGGAGUCCGUCUCCGG [tttttgagapaired]”, the binding signal (log2 fold change) came to 0.771.
As to “GUGGUUGGUGUUGGCGUCUAACACCAAUCA [gtspaired]”, the binding signal (log2 fold change) was -0.22.
With “UUUUUUUUUUGAGAGCGUGACGCUCUUCUG [tttttgagapaired]”, the binding signal (log2 fold change) is 0.512.
In the case of “GGUUGGUGUGUUGGUCCCUAACACAUCAGC [gtspaired]”, the binding signal (log2 fold change) is -0.46.
For “UUUUUUUUUUGAGAACGAAUCGUUCUUCUA [tttttgagapaired]” the value was -0.435; for “GUGUGGUGUGUUGGCUCCUAACACAUCACG [gtspaired]”, -0.52.
As for “GGUGGUUGUGUUGGAAUCUAACACAAUCGC [gtspaired]”, the binding signal (log2 fold change) was -0.785.
For the sequence “UUUUUUUUUUGAGAGCGAGACGCUCUCCUA [tttttgagapaired]”, the binding signal (log2 fold change) is -0.0432.
For “UUUUUUUUUUGAGACGGCGGCCGUUUCCAG [tttttgagapaired]”, the binding signal (log2 fold change) came to 0.867.
In the case of “GGUGUUGGUGUUGGCUCCUAACACCGAUAC [gtspaired]”, the binding signal (log2 fold change) is -0.577.
On to “UUUUUUUUUUGAGACCGAAGCGGUCUUCUA [tttttgagapaired]”, for which the binding signal (log2 fold change) turned out to be 0.54.
For “UUUUUUUUUUGAGACGGACCCCGUCUCCUG [tttttgagapaired]” the value was 0.877; for “UUUUUUUUUUGAGAGUGACACACUCUCCAG [tttttgagapaired]”, 0.138.
Regarding “UUUUUUUUUUGAGAUGGUGUCCAUCUCCUG [tttttgagapaired]”, the binding signal (log2 fold change) worked out at 0.639.
The value for “GUGGUGUGUGUUGGAAUCUAACACACAUCA [gtspaired]” was -0.263; that for “UUUUUUUUUUGAGAUGGUAACCAUCUCCUA [tttttgagapaired]” was 0.0437; that for “UUUUUUUUUUGAGACCGUUUCGGUCUUCUG [tttttgagapaired]” was 0.565.
As to “GGUUGGUGUGUUGGUGCCUAACACAUCGAC [gtspaired]”, the binding signal (log2 fold change) is -0.606.
For “UUUUUUUUUUGAGACUGGAACAGUCUCCGG [tttttgagapaired]”, the binding signal (log2 fold change) is 0.107.
The value for “GUGUGUGGUGUUGGUUCCUAACACCACGCG [gtspaired]” was -0.526; that for “GGUGUGUGUGUUGGUACCUAACACAUACGC [gtspaired]” was -0.928.
For “UUUUUUUUUUGAGAGCGUAACGUUCUCCUA [tttttgagapaired]” the value was 0.109; for “UUUUUUUUUUGAGAGCGAAACGCUCUUCUG [tttttgagapaired]”, 0.0452.
For the sequence “UUUUUUUUUUGAGAGCGGGUCGUUCUCCAG [tttttgagapaired]”, the binding signal (log2 fold change) is 0.39.
As to “UUUUUUUUUUGAGAGGGUAUCCCUCUUCUA [tttttgagapaired]”, the binding signal (log2 fold change) amounted to 0.307.
As for “GUGUGGUGUGUUGGAGUCUAACACACUACA [gtspaired]”, the binding signal (log2 fold change) is -0.62.
“UUUUUUUUUUGAGAUCGUACCGAUCUCCGG [tttttgagapaired]”: the binding signal (log2 fold change) came to 0.227.
On to “UUUUUUUUUUGAGAGCGGUGCGUUCUCCUG [tttttgagapaired]”, for which the binding signal (log2 fold change) came to 0.513.
As to “UUUUUUUUUUGAGAGGGCAGCCCUUUCCAG [tttttgagapaired]”, the binding signal (log2 fold change) turned out to be 0.56.
“GUGUGUUGUGUUGGAGCCUAACACAGCACA [gtspaired]”: the binding signal (log2 fold change) was -0.433.
As for “UUUUUUUUUUGAGACCGGGUCGGUCUCCAG [tttttgagapaired]”, the binding signal (log2 fold change) is 0.405.
For “UUUUUUUUUUGAGAGGGAGCCCCUCUCCUA [tttttgagapaired]”, the binding signal (log2 fold change) stood at 0.426.
The value for “GGUUGUUGUGUUGGUACCUAACACAGCAAC [gtspaired]” was -0.666; that for “UUCUCUUCUCCUCCUGGGGAGGGGAAGGGA [ctspaired]” was -0.575.
In the case of “GGUGUGUGUGUUGGAGUCUAACACACGCGC [gtspaired]”, the binding signal (log2 fold change) is -0.517.
As for “UUUUUUUUUUGAGAGCGAAGCGUUCUCCUA [tttttgagapaired]”, the binding signal (log2 fold change) stood at 0.0965.
For “GGUGGUUGUGUUGGACCCUAACACAACUAC [gtspaired]” the value was -0.117; for “UUUUUUUUUUGAGACGGGUGCCGUCUCCUG [tttttgagapaired]”, 0.835.
With “GUGUGUUGUGUUGGACCCUAACACAACACG [gtspaired]”, the binding signal (log2 fold change) was -0.262.
In the case of “GUGGUGUGUGUUGGCAUCUAACACACGCCA [gtspaired]”, the binding signal (log2 fold change) was -0.378.
Consider “GGUUGUUGUGUUGGUCCCUAACACAGCAAC [gtspaired]”, for which the binding signal (log2 fold change) is -0.614.
“UUUUUUUUUUGAGAUGGACACCAUCUCCGG [tttttgagapaired]”: the binding signal (log2 fold change) came out at 0.291.
As for “GUGUGUUGUGUUGGUUCCUAACACAACGCG [gtspaired]”, the binding signal (log2 fold change) is -0.857.
Regarding “GUUGGUGGUGUUGGUACCUAACACCAUCAA [gtspaired]”, the binding signal (log2 fold change) is -0.941.
In the case of “GUUGUGUGUGUUGGCGCCUAACACACGCAA [gtspaired]”, the binding signal (log2 fold change) was found to be 0.126.
On to “UUUUUUUUUUGAGACUGUUGCAGUCUCCAG [tttttgagapaired]”, for which the binding signal (log2 fold change) stood at 0.34.
Take “UUUUUUUUUUGAGAGGGCCACCCUCUCCGG [tttttgagapaired]”: the binding signal (log2 fold change) is 0.783.
Take “GUGGUUGGUGUUGGCGCCUAACACCAGCCA [gtspaired]”: the binding signal (log2 fold change) is -0.286.
For the sequence “GUGUGUUGUGUUGGAGUCUAACACAGCGCA [gtspaired]”, the binding signal (log2 fold change) is -0.581.
For the sequence “GGUGGUGGUGUUGGACCCUAACACCAUCGC [gtspaired]”, the binding signal (log2 fold change) is -0.477.
As for “UUUUUUUUUUGAGAGUGAAGCACUCUUCUG [tttttgagapaired]”, the binding signal (log2 fold change) is 0.125.
For “UUUUUUUUUUGAGACCGUGUCGGUCUUCUA [tttttgagapaired]” the value was 0.448; for “UUUUUUUUUUGAGAGCGAAACGUUCUCCGG [tttttgagapaired]”, 0.0893; for “UUUUUUUUUUGAGAUGGGUACCAUCUCCGG [tttttgagapaired]”, 0.217.
Turning to “GUGUUGUGUGUUGGACUCUAACACACAACG [gtspaired]”, the binding signal (log2 fold change) was -0.611.
As to “UUUUUUUUUUGAGAUGGGGACCAUCUCCAG [tttttgagapaired]”, the binding signal (log2 fold change) came to 0.288.
Regarding “GGUGUGUGUGUUGGCCUCUAACACAUACAC [gtspaired]”, the binding signal (log2 fold change) is -0.226.
Take “UUUUUUUUUUGAGAGGGCGUCCUUCUCCGG [tttttgagapaired]”: the binding signal (log2 fold change) was 0.868.
For “GGUUGUGGUGUUGGACCCUAACACCACGAC [gtspaired]” the value was -0.166.
“UUUUUUUUUUGAGACCGAGUCGGUUUCCAG [tttttgagapaired]”: the binding signal (log2 fold change) worked out at 0.684.
With “GUGUGUGGUGUUGGUACCUAACACCGCACG [gtspaired]”, the binding signal (log2 fold change) is -0.419.
Regarding “UUUUUUUUUUGAGAGCGGUCCGCUCUUCUA [tttttgagapaired]”, the binding signal (log2 fold change) was 0.538.
As for “UUUUUUUUUUGAGAGUGUAGCAUUCUCCGG [tttttgagapaired]”, the binding signal (log2 fold change) amounted to 0.308.
The value for “GUGUGUUGUGUUGGCGCCUAACACAACACG [gtspaired]” was -0.448.
“UUUUUUUUUUGAGAGCGAGGCGCUCUUCUG [tttttgagapaired]”: the binding signal (log2 fold change) worked out at 0.25.
Regarding “GUUGUGUGUGUUGGUCCCUAACACACGCAG [gtspaired]”, the binding signal (log2 fold change) was -0.59.
Turning to “UUUUUUUUUUGAGAUGGGCACUAUCUCCUA [tttttgagapaired]”, the binding signal (log2 fold change) turned out to be 0.395.
Take “GUGUGGUGUGUUGGACUCUAACACAUCACA [gtspaired]”: the binding signal (log2 fold change) is -0.694.
Take “UUUUUUUUUUGAGAUCGAUACGAUCUCCAG [tttttgagapaired]”: the binding signal (log2 fold change) stood at 0.23.
Regarding “UUUUUUUUUUGAGACGGUGGCCGUUUCCGG [tttttgagapaired]”, the binding signal (log2 fold change) was 0.914.
In the case of “UUUUUUUUUUGAGACGGAAGCUGUCUCCGG [tttttgagapaired]”, the binding signal (log2 fold change) amounted to 0.765.
